This note sets out measurements from the supplement of paper PMC4604168 (melanoma cell lines).

This is one part of the list. Many values rest on one well or one pass, so single values are uncertain.
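Further: cells treated in 1,536-well plates, then fixed and DAPI-stained, with nuclei counted from automated high-throughput microscope images.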

For the assay, the system named is A2058. The assay can be described thus: cell count relative to DMSO control; melanoma cells; higher = more viable cells. Particulars: library dose: standard library concentration; 72 h.
Regarding `O=C(/C=C/c1cccnc1)NCCCCC1CCN(C(=O)c2ccccc2)CC1` + CS(=O)(=O)CCNCc1ccc(-c2ccc3ncnc(Nc4ccc(OCc5cccc(F)c5)c(Cl)c4)c3c2)o1 [lapatinib] (first compound 0.05 µM, partner dose 4 µM), the cell count worked out at 68.8%. Turning to `Cc1ccc(Nc2nccc(N(C)c3ccc4c(C)n(C)nc4c3)n2)cc1S(N)(=O)=O` [Pazopanib] + CC(C)(C)c1cnc(CSc2cnc(NC(=O)C3CCNCC3)s2)o1 [SNS-032] (first compound 2 µM, partner dose 0.05 µM), the cell count turned out to be 92.8%.

For `Cc1ccc(Nc2nccc(N(C)c3ccc4c(C)n(C)nc4c3)n2)cc1S(N)(=O)=O` [Pazopanib] + Cn1nnc2c(C(N)=O)ncn2c1=O [temozolomide] (first compound 2 µM, partner dose 10 µM), the cell count worked out at 44.9%.

Take `Cc1ccc(Nc2nccc(N(C)c3ccc4c(C)n(C)nc4c3)n2)cc1S(N)(=O)=O` [Pazopanib] + CC(C)C[C@H](NC(=O)[C@H](Cc1ccccc1)NC(=O)c1cnccn1)B(O)O [Bortezomib] (first compound 2 µM, partner dose 0.005 µM): the cell count was 9.13%. As to `Cc1ccc(Nc2nccc(N(C)c3ccc4c(C)n(C)nc4c3)n2)cc1S(N)(=O)=O` [Pazopanib] + O=C(CCCCCCC(=O)Nc1ccccc1)NO [vorinostat] (first compound 2 µM, partner dose 0.4 µM), the cell count stood at 94.3%. The result for `Cc1ccc(Nc2nccc(N(C)c3ccc4c(C)n(C)nc4c3)n2)cc1S(N)(=O)=O` [Pazopanib] + O=C(O)[C@@H]1[O][Sb](=[O])([O][Sb]2(=[O])[O][C@H]([C@H](O)CO)[C@H](O)[C@H](C(=O)O)[O]2)[O][C@H]([C@H](O)CO)[C@@H]1O [stibogluconate] (first compound 2 µM, partner dose 10 µM) reads 119%; that for `Cc1ccc(Nc2nccc(N(C)c3ccc4c(C)n(C)nc4c3)n2)cc1S(N)(=O)=O` [Pazopanib] + Cn1c(=O)n(-c2ccc(C(C)(C)C#N)cc2)c2c3cc(-c4cnc5ccccc5c4)ccc3ncc21 [NVP-BEZ235] (first compound 2 µM, partner dose 0.02 µM), 56.5%; that for `O=C(/C=C/c1cccnc1)NCCCCC1CCN(C(=O)c2ccccc2)CC1` + O=C(Nc1cccc(Cl)c1)Nc1ncc(CCNc2ncnc3ccsc23)s1 [SNS314] (first compound 0.05 µM, partner dose 0.004 µM), 94%. The result for `CC1(C)CCC(c2ccc(Cl)cc2)=C(CN2CCN(c3ccc(C(=O)NS(=O)(=O)c4ccc(N[C@H](CCN5CCOCC5)CSc5ccccc5)c(S(=O)(=O)C(F)(F)F)c4)cc3)CC2)C1` + C[C@]1(O)C[C@@H](c2nc(-c3ccc4ccc(-c5ccccc5)nc4c3)c3c(N)nccn32)C1 [OSI906] (first compound 2 µM, partner dose 2 µM) reads 81.2%; that for `Cc1ccc(Nc2nccc(N(C)c3ccc4c(C)n(C)nc4c3)n2)cc1S(N)(=O)=O` [Pazopanib] + Nc1nc(F)nc2c1ncn2[C@@H]1O[C@H](CO)[C@@H](O)[C@@H]1O [fludarabine] (first compound 2 µM, partner dose 1 µM), 75%. The result for `Cc1ccc(Nc2nccc(N(C)c3ccc4c(C)n(C)nc4c3)n2)cc1S(N)(=O)=O` [Pazopanib] + COCC[n+]1c2c(n(Cc3cnccn3)c1C)C(=O)c1ccccc1C2=O [YM155] (first compound 2 µM, partner dose 0.002 µM) reads 15.4%; that for `Cc1ccc(Nc2nccc(N(C)c3ccc4c(C)n(C)nc4c3)n2)cc1S(N)(=O)=O` [Pazopanib] + Cn1cnc2c(F)c(Nc3ccc(Br)cc3Cl)c(C(=O)NOCCO)cc21 [selumetinib] (first compound 2 µM, partner dose 0.075 µM), 87.2%.

In turn, `CC1(C)CCC(c2ccc(Cl)cc2)=C(CN2CCN(c3ccc(C(=O)NS(=O)(=O)c4ccc(N[C@H](CCN5CCOCC5)CSc5ccccc5)c(S(=O)(=O)C(F)(F)F)c4)cc3)CC2)C1` + CN(NC(=O)CC(=O)NN(C)C(=S)c1ccccc1)C(=S)c1ccccc1 [STA4783] (first compound 2 µM, partner dose 0.03 µM) showed a cell count of 22.5%.

Compound `CC1(C)CCC(c2ccc(Cl)cc2)=C(CN2CCN(c3ccc(C(=O)NS(=O)(=O)c4ccc(N[C@H](CCN5CCOCC5)CSc5ccccc5)c(S(=O)(=O)C(F)(F)F)c4)cc3)CC2)C1` + O=C(O)[C@@H]1[O][Sb](=[O])([O][Sb]2(=[O])[O][C@H]([C@H](O)CO)[C@H](O)[C@H](C(=O)O)[O]2)[O][C@H]([C@H](O)CO)[C@@H]1O [stibogluconate] (first compound 2 µM, partner dose 10 µM) came in with a cell count of 101%. The result for `O=C(/C=C/c1cccnc1)NCCCCC1CCN(C(=O)c2ccccc2)CC1` + Cn1nnc2c(C(N)=O)ncn2c1=O [temozolomide] (first compound 0.05 µM, partner dose 10 µM) reads 52.1%; that for `O=C(/C=C/c1cccnc1)NCCCCC1CCN(C(=O)c2ccccc2)CC1` + CCCCCCCCc1ccc(CCC(N)(CO)CO)cc1 [fingolimod] (first compound 0.05 µM, partner dose 10 µM), 10.7%.

Take `CC1(C)CCC(c2ccc(Cl)cc2)=C(CN2CCN(c3ccc(C(=O)NS(=O)(=O)c4ccc(N[C@H](CCN5CCOCC5)CSc5ccccc5)c(S(=O)(=O)C(F)(F)F)c4)cc3)CC2)C1` + C[C@]1(c2nc3c(C(N)=O)cccc3[nH]2)CCCN1 [Veliparib] (first compound 2 µM, partner dose 7 µM): the cell count stood at 78.4%.

In the case of `Cc1ccc(Nc2nccc(N(C)c3ccc4c(C)n(C)nc4c3)n2)cc1S(N)(=O)=O` [Pazopanib] + C=CCNC1=C2C[C@@H](C)C[C@H](OC)[C@H](O)[C@@H](C)/C=C(\C)[C@H](OC(N)=O)[C@@H](OC)/C=C\C=C(/C)C(=O)NC(=CC1=O)C2=O [Tanespimycin] (first compound 2 µM, partner dose 0.01 µM), the cell count amounted to 94.7%. Take `Cc1ccc(Nc2nccc(N(C)c3ccc4c(C)n(C)nc4c3)n2)cc1S(N)(=O)=O` [Pazopanib] + OCCn1cc(-c2cnc3nnn(Cc4ccc5ncccc5c4)c3n2)cn1 [PF04217903] (first compound 2 µM, partner dose 5 µM): the cell count is 102%. The result for `O=C(/C=C/c1cccnc1)NCCCCC1CCN(C(=O)c2ccccc2)CC1` + C[C@]1(c2nc3c(C(N)=O)cccc3[nH]2)CCCN1 [Veliparib] (first compound 0.05 µM, partner dose 7 µM) reads 60.3%. Next, `O=C(/C=C/c1cccnc1)NCCCCC1CCN(C(=O)c2ccccc2)CC1` + CO[C@@H]1[C@H](N(C)C(=O)c2ccccc2)C[C@H]2O[C@]1(C)n1c3ccccc3c3c4c(c5c6ccccc6n2c5c31)C(=O)NC4 [Midostaurin] (first compound 0.05 µM, partner dose 0.4 µM): 70.1%; `O=C(/C=C/c1cccnc1)NCCCCC1CCN(C(=O)c2ccccc2)CC1` + CC1(C)CCC(c2ccc(Cl)cc2)=C(CN2CCN(c3ccc(C(=O)NS(=O)(=O)c4ccc(N[C@H](CCN5CCOCC5)CSc5ccccc5)c(S(=O)(=O)C(F)(F)F)c4)cc3)CC2)C1 [ABT263] (first compound 0.05 µM, partner dose 2 µM): 98.4%; `O=C(/C=C/c1cccnc1)NCCCCC1CCN(C(=O)c2ccccc2)CC1` + C[C@@H]1CCN(C(=O)CC#N)C[C@@H]1N(C)c1ncnc2[nH]ccc12 [CP690550] (first compound 0.05 µM, partner dose 5 µM): 89.9%. Next, `O=C(/C=C/c1cccnc1)NCCCCC1CCN(C(=O)c2ccccc2)CC1` + Cc1cc(N2CCOCC2)cc2[nH]c(-c3c(NC[C@@H](O)c4cccc(Cl)c4)cc[nH]c3=O)nc12 [BMS536924] (first compound 0.05 µM, partner dose 1 µM): 80.1%. For `CC1(C)CCC(c2ccc(Cl)cc2)=C(CN2CCN(c3ccc(C(=O)NS(=O)(=O)c4ccc(N[C@H](CCN5CCOCC5)CSc5ccccc5)c(S(=O)(=O)C(F)(F)F)c4)cc3)CC2)C1` + Cc1ccc(NC(=O)c2cccc(N(C)C)c2)cc1NC(=O)c1ccc(O)cc1 [ZM336372] (first compound 2 µM, partner dose 10 µM), the cell count was found to be 72.9%. The result for `Cc1ccc(Nc2nccc(N(C)c3ccc4c(C)n(C)nc4c3)n2)cc1S(N)(=O)=O` [Pazopanib] + CC(=O)c1c(C)c2cnc(Nc3ccc(N4CCNCC4)cn3)nc2n(C2CCCC2)c1=O [palbociclib] (first compound 2 µM, partner dose 0.2 µM) reads 98.7%. In the case of `Cc1ccc(Nc2nccc(N(C)c3ccc4c(C)n(C)nc4c3)n2)cc1S(N)(=O)=O` [Pazopanib] + NC(=O)c1ccc(N(C(N)=O)c2c(F)cccc2F)nc1-c1ccc(F)cc1F [VX702] (first compound 2 µM, partner dose 2 µM), the cell count was 108%.
